Laboratory results from the supplement of paper PMC12217912.
This is one part of the list. The full chains were built here from the parent and the listed change. Inactive controls read about 0.05.

B1: TEV protease; numbered along this chain (parent)
chain: MGESLFKGPRDYNPISSSICHLTNESDGHTTSLYGIGFGPFIITNKHLFRRNNGTLVVQSLHGVFKVKDTTTLQQHLVDGRDMIIIRMPKDFPPFPQKLKFREPQREERICLVTTNFQTKSMSSMVSDTSCTFPSGDGIFWKHWIQTKDGQCGSPLVSTRDGFIVGIHSASNFTNTNNYFTSVPKNFMELLTNQEAQQWVSGWRLNADSVLWGGHKVFMVKPEEPFQPVKEATQL

Variants of: B1
Experiment: raw area under fraction-flipped curve 0-4 h after induction (AUC4h, not background-subtracted), DNA-recorder readout of cleavage of the substrate (dimensionless); higher = more cleavage of the substrate by the protease variant
Settings: temperature: 34 °C; time window: 0-4 h after rhamnose induction
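Note: Bxb1 expression induced with 0.2% (w/v) L-rhamnose at OD600 near 0.5, cultures sampled hourly, flipped fraction per protease–substrate barcode pair counted by paired-end Illumina sequencing.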

Variant	area with substrate ENLYFES	area with substrate ENLYFIS	area with substrate ENLYFKS	area with substrate ENLYFNS	area with substrate ENLYFPS	area with substrate ENLYFSS	area with substrate ENLYFHS	area with substrate ENLYFLS	area with substrate ENLYFMS	area with substrate ENLYFRS
MGESLFKGPRDYNPISSSICHLTNESDGHTTSLEGIGFGPFIITNKHLFRRNNGTLVVQSLHGVFKVKDTTTLQQHLVDGRDMIIIRMPKDFPPFPQKLKFREPQREERICLVTTNFQTKSMSSMVSDTSCTFPSGDGIFWKHWIQTKDGQCGSPLVSTRDGFIVGIHSASNFTNTNNYFTSVPKNFMELLTNQEAQQWVSGWRLNADSVLWGGHKVFMVKPEEPFQPVKEATQL [Y34E]	0.0575	0.0573	0.0299	0.0637	0.0628	0.0554				
MGESLFKGPRDYNPISSSICHLTNESDGHTTSLYGIGFGPFIITNKHLFRRNNGTLVVQSLHGVFKVKDTTTLQQHLVDGRDMIIIRMPKDFPPFPQKLKFREPQREERICLVTTNFQTKSMSSMVSDTSCTFPSGDGHFWKHWIQTKDGQCGSPLVSTRDGFIVGIHSASNFTNTNNYFTSVPKNFMELLTNQEAQQWVSGWRLNADSVLWGGHKVFMVKPEEPFQPVKEATQL [I139H]		0.0593	0.0551	0.0674	0.0553		0.0636	0.0337	0.0399	0.0706
MGESLFKGPRDYNPISSSICHLTNESDGHTTSLYGIGFGPFIITNKHLFRRNNGTLVVQSLHGVFKVKDTTTLQQHLVDGRDMIIIRMPKDFPPFPQKLKFREPQREERICLVTTNFQTKSMSSMVSDTSCTFPSGDGIFWKHWIQTKDGQCGSPLVSTRDGFIVGIHSASNFTNTNNYQTSVPKNFMELLTNQEAQQWVSGWRLNADSVLWGGHKVFMVKPEEPFQPVKEATQL [F180Q]					0.0617		0.0381		0.0589	
MGESLFKGPRDYNPISSSICHLTNESDGHTTSLYGIGFGPFIITNKHLFRRNNGTLVVQSLHGVFKVKDTTTLQQHLVDGRDMIIIRMPKDFPPFPQKLKFREPQREERICLVTTNFQTKSMSSMVSDTSCTFPSGDGIFWKHWIQTKDGQCGSPLVSTRDGFIVGIHSASNFTNTNNYATSVPKNFMELLTNQEAQQWVSGWRLNADSVLWGGHKVFMVKPEEPFQPVKEATQL [F180A]	0.0652	0.0658	0.0522		0.0585		0.0771	0.0746	0.0732	0.0641
MGESLFKGPRDYNPISSSICHLTNESDGHTTSLYGIGFGPFIITNKHLFRRNNGTLVVQSLHGVFKVKDTTTLQQHLVDGRDMIIIRMPKDFPPFPQKLKFREPQREERICLVTTNFQTKSMSSMVSDESCTFPSGDGIFWKHWIQTKDGQCGSPLVSTRDGFIVGIHSASNFTNTNNYFTSVPKNFMELLTNQEAQQWVSGWRLNADSVLWGGHKVFMVKPEEPFQPVKEATQL [T129E]		0.0492		0.0505			0.079		0.0698	
MGESLFKGPRDYNPISSSICHLTNESDGHTTSLYGIGFGPFIITNKHLFRRNNGTLVVQSLHGVFKVKDTTTLQQHLVDGRDMIIIRMPKDFPPFPQKLKFREPQREERICLVTTNFQTKSMSSMVSDTSCTFPSGDGIFWKHWIQTKDGQCGSPLVSTRDGFIVGIHSASNFTNTNNYFTSVPKNFMELLTNQEAQQWVSGWRLNADSVLWNGHKVFMVKPEEPFQPVKEATQL [G213N]							0.0571			
MGESLFKGPRDYNPISSSICHLTNESDGHTTSLYGIGFGPFIITNKHLFRRNNGTLVVQSLHGVFKVKDTTTLQQHLVDGRDMIIIRMPKDFYPFPQKLKFREPQREERICLVTTNFQTKSMSSMVSDTSCTFPSGDGIFWKHWIQTKDGQCGSPLVSTRDGFIVGIHSASNFTNTNNYFTSVPKNFMELLTNQEAQQWVSGWRLNADSVLWGGHKVFMVKPEEPFQPVKEATQL [P93Y]				0.0624						
MGESLFKGPRDYNPISSSICHLTNESDGHTTSLYGIGFGPFIITNKHLFRRNNGTLVVQSLHGVFKVKDTTTLQQHLVDGRDMIIIRMPKDFNPFPQKLKFREPQREERICLVTTNFQTKSMSSMVSDTSCTFPSGDGIFWKHWIQTKDGQCGSPLVSTRDGFIVGIHSASNFTNTNNYFTSVPKNFMELLTNQEAQQWVSGWRLNADSVLWGGHKVFMVKPEEPFQPVKEATQL [P93N]		0.0635	0.0537		0.0616					
MGESLFKGPRDYNPISSSICHLTNESDGHTTSLYGIGFGPFIITNKHLFRRNNGTLVVQSLHGVFKVKDTTTLQQHLVDGRDMIIIRMPKDFPPFPQKLKFREPQREERICLVTTNFQTKSMSSMVSDTSCTFPSGDGIFWKHWIQTKDGFCGSPLVSTRDGFIVGIHSASNFTNTNNYFTSVPKNFMELLTNQEAQQWVSGWRLNADSVLWGGHKVFMVKPEEPFQPVKEATQL [Q151F]	0.0601									
MGESLFKGPRDYNPISSSICHLTNESDGHTTSLYGIGFGPFIITNKHLFRRNNGTLVVQSLHGVFKVKDTTTLQQHLVDGRDMIIIRMPKDFPPFPQKLKFREPQREERICLVTTNFQTKSMSSMVSDTSCTFPSGDGIFWKHWIQTKDGQCGSPLVSTRDGFIVGIHSASNFTNTNNYFTSVPKNFMELLTNQEAQQWVSGWRLNADSVLWGGHKVFMVKPEESFQPVKEATQL [P225S]		0.0591	0.0971		0.0636		0.043			
MGESLFKGPRDYNPISSSICHLTNESDGHTTSLYGIGFGPFIITNKHLFRRNNGTLVVQSLHGVFKVKDTTTLQQHLVDGRDMIIIRMPKDFPPFPQKLKFREPQREERICLVTTNFQTKSMSSMVSDTSCTFPSGDGIFWKHWIQTKDGQCGSPLVSFRDGFIVGIHSASNFTNTNNYFTSVPKNFMELLTNQEAQQWVSGWRLNADSVLWGGHKVFMVKPEEPFQPVKEATQL [T159F]		0.0526	0.0326	0.0624	0.0669		0.0558		0.063	
MGESLFKGPRDYNPISSSICHLTNESDGHTTSLYGIGFGPFIITNKHLFRRNNGTLVTQSLHGVFKVKDTTTLQQHLVDGRDMIIIRMPKDFPPFPQKLKFREPQREERICLVTTNFQTKSMSSMVSDTSCTFPSGDGIFWKHWIQTKDGQCGSPLVSTRDGFIVGIHSASNFTNTNNYFTSVPKNFMELLTNQEAQQWVSGWRLNADSVLWGGHKVFMVKPEEPFQPVKEATQL [V58T]			0.0587	0.0538			0.0536			
MGESLFKGPRDYNPISSSICHLTNESDGHTTSLYGIGFGPFIITNKHLFRRNNGTLVVQSLHGVFKVKDTTTLQQHLVDGRDMIIIRMPKDFPPFPQKLKFREPQREERICLVTTNFQTKSMSSMVSDTSCTFPSGDGIFWKHWIQTKDGQCGSPLVSTRDGFIVGIHSASNFTNTNNYFTSVPKNFMELLTNQEAQQWVSGWRLNADSVLWGGHKVTMVKPEEPFQPVKEATQL [F218T]	0.0601	0.0402			0.0416			0.0173	0.0505	0.0757

Same assay, conditions: temperature: 34 °C; time window: 0-4 h after rhamnose induction

Variant	area with substrate ENLYFTS	area with substrate ENLYFWS	area with substrate ENLYFFS	area with substrate ENLYFGS	area with substrate ENLYFVS
MGESLFKGPRDYNPISSSICHLTNESDGHTTSLYGIGFGPFIITNKHLFRRNNGTLVVQSLHGVFKVKDTTTLQQHLVDGRDMIIIRMPKDFPPFPQKLKFREPQREERICLVTTNFQTKSMSSMVSDTSCTFPSGDGHFWKHWIQTKDGQCGSPLVSTRDGFIVGIHSASNFTNTNNYFTSVPKNFMELLTNQEAQQWVSGWRLNADSVLWGGHKVFMVKPEEPFQPVKEATQL [I139H]	0.0417	0.0553			
MGESLFKGPRDYNPISSSICHLTNESDGHTTSLYGIGFGPFIITNKHLFRRNNGTLVVQSLHGVFKVKDTTTLQQHLVDGRDMIIIRMPKDFPPFPQKLKFREPQREERICLVTTNFQTKSMSSMVSDTSCTFPSGDGIFWKHWIQTKDGQCGSPLVSTRDGFIVGIHSASNFTNTNNYATSVPKNFMELLTNQEAQQWVSGWRLNADSVLWGGHKVFMVKPEEPFQPVKEATQL [F180A]		0.0553			
MGESLFKGPRDYNPISSSICHLTNESDGHTTSLYGIGFGPFIITNKHLFRRNNGTLVVQSLHGVFKVKDTTTLQQHLVDGRDMIIIRMPKDFPPFPQKLKFREPQREERICLVTTNFQTKSMSSMVSDESCTFPSGDGIFWKHWIQTKDGQCGSPLVSTRDGFIVGIHSASNFTNTNNYFTSVPKNFMELLTNQEAQQWVSGWRLNADSVLWGGHKVFMVKPEEPFQPVKEATQL [T129E]			0.0628		
MGESLFKGPRDYNPISSSICHLTNESDGHTTSLYGIGFGPFIITNKHLFRRNNGTLVVQSLHGVFKVKDTTTLQQHLVDGRDMIIIRMPKDFPPFPQKLKFREPQREERICLVTTNFQTKSMSSMVSDTSCTFPSGDGIFWKHWIQTKDGQCGSPLVSTRDGFIVGIHSASNFTNTNNYFTSVPKNFMELLTNQEAQQWVSGWRLNADSVLWNGHKVFMVKPEEPFQPVKEATQL [G213N]	0.0646			0.079	
MGESLFKGPRDYNPISSSICHLTNESDGHTTSLYGIGFGPFIITNKHLFRRNNGTLVVQSLHGVFKVKDTTTLQQHLVDGRDMIIIRMPKDFYPFPQKLKFREPQREERICLVTTNFQTKSMSSMVSDTSCTFPSGDGIFWKHWIQTKDGQCGSPLVSTRDGFIVGIHSASNFTNTNNYFTSVPKNFMELLTNQEAQQWVSGWRLNADSVLWGGHKVFMVKPEEPFQPVKEATQL [P93Y]	0.0611		0.0701		
MGESLFKGPRDYNPISSSICHLTNESDGHTTSLYGIGFGPFIITNKHLFRRNNGTLVVQSLHGVFKVKDTTTLQQHLVDGRDMIIIRMPKDFNPFPQKLKFREPQREERICLVTTNFQTKSMSSMVSDTSCTFPSGDGIFWKHWIQTKDGQCGSPLVSTRDGFIVGIHSASNFTNTNNYFTSVPKNFMELLTNQEAQQWVSGWRLNADSVLWGGHKVFMVKPEEPFQPVKEATQL [P93N]		0.052	0.0748		
MGESLFKGPRDYNPISSSICHLTNESDGHTTSLYGIGFGPFIITNKHLFRRNNGTLVVQSLHGVFKVKDTTTLQQHLVDGRDMIIIRMPKDFPPFPQKLKFREPQREERICLVTTNFQTKSMSSMVSDTSCTFPSGDGIFWKHWIQTKDGFCGSPLVSTRDGFIVGIHSASNFTNTNNYFTSVPKNFMELLTNQEAQQWVSGWRLNADSVLWGGHKVFMVKPEEPFQPVKEATQL [Q151F]	0.0556			0.058	
MGESLFKGPRDYNPISSSICHLTNESDGHTTSLYGIGFGPFIITNKHLFRRNNGTLVVQSLHGVFKVKDTTTLQQHLVDGRDMIIIRMPKDFPPFPQKLKFREPQREERICLVTTNFQTKSMSSMVSDTSCTFPSGDGIFWKHWIQTKDGQCGSPLVSTRDGFIVGIHSASNFTNTNNYFTSVPKNFMELLTNQEAQQWVSGWRLNADSVLWGGHKVFMVKPEESFQPVKEATQL [P225S]			0.0489		0.0363
MGESLFKGPRDYNPISSSICHLTNESDGHTTSLYGIGFGPFIITNKHLFRRNNGTLVVQSLHGVFKVKDTTTLQQHLVDGRDMIIIRMPKDFPPFPQKLKFREPQREERICLVTTNFQTKSMSSMVSDTSCTFPSGDGIFWKHWIQTKDGQCGSPLVSFRDGFIVGIHSASNFTNTNNYFTSVPKNFMELLTNQEAQQWVSGWRLNADSVLWGGHKVFMVKPEEPFQPVKEATQL [T159F]			0.0772		
MGESLFKGPRDYNPISSSICHLTNESDGHTTSLYGIGFGPFIITNKHLFRRNNGTLVVQSLHGVFKVKDTTTLQQHLVDGRDMIIIRMPKDFPPFPQKLKFREPQREERICLVTTNFQTKSMSSMVSDTSCTFPSGDGIFWKHWIQTKDGQCGSPLVSTRDGFIVGIHSASNFTNTNNYFTSVPKNFMELLTNQEAQQWVSGWRLNADSVLWGGHKVTMVKPEEPFQPVKEATQL [F218T]		0.0552	0.0665		
